{"source": "the RNAGym collection of RNA variant scans (doi:10.7554/elife.90254)", "parents": {"B1": {"name": "OR4K15 (parent)", "chain": "GUUAACGGUCAUAGGCCAUGGAAACUAGGAGCACCAUUUCGCUGCCAGUGAAGAAAUGAACAAAGAAAAUCUGGGCCAGGCAGGCAUCAAAAGAAAUAGUCUUGCGCUCAACCAGAAAGUCUGUAAUCAUUUUAAGGGUA"}}, "note": "Read counts are not given, so values of variants with three or more changes are uncertain.", "data": [{"variants_of": "B1", "assay": "self-cleavage, relative activity (ratio to wild type); higher = more cleavage; in vitro, sequencing; the parent is a self-cleaving ribozyme", "values": [{"variant": "GUUAACGGUCAUAGGCCGUGGAGACUAGGAGCACCAUUUCGCUGCCAGUGAAAAAAUGAACAAAGAAAAUCUGGGCCAGGCAGGCAUCAAAAGAAAUAGUCUUGCGCUCAACCAGAAAGUCUGUAAUCAUUUUAGGGGUA", "note": "[A18G A23G G53A A135G]", "self-cleavage": 0.75}, {"variant": "GUUAACGGUCAUAGGCCACGGAAACUAGGAGCACCAUUUCGCUGCCAGUGAAGAAAUGAACAGAGAAAAUCUGGGCCAGGCAGGCAUCAAAAGAAAUAGUCUUGCGCUCAGCCAGAAAGUCUGUAAUCAUUUUAAGGGUA", "note": "[U19C A63G A111G]", "self-cleavage": 0.04}, {"variant": "GUUAACGGUCAUAGGCCAUGGAAACUAGGAGCACCAUUUCGCUGCCAGUGAGGAAACGAACAAAGAAAAUCUGGGCCAGGCAGGCACCAAAAGAAAUAGUCUUGCGCUCAACCAGAAAGUCUGUAAUCAUUUUAAGGGUA", "note": "[A52G U57C U87C]", "self-cleavage": 1.69}, {"variant": "GUUAGCGGUCAUAGGCCAUGGGAACUAGGAGCACCAUUUCGCUGCCAGUGAAGAAAUGAACAAAGAGAAUCUGGGCCAGGCAGGCAUCAAAAGAAAUAGUCUUGCGCUCAACCAGAAGGUCUGUAAUCAUUUUAAGGGUA", "note": "[A5G A22G A67G A118G]", "self-cleavage": 0.87}, {"variant": "GUUAACGGUCAUAGGCCAUGGAAACUAGGAGCACCAUUCCACUGCCAGUGAAGAAAUGAACAAAGAAAAUCUGGGCCAGGCAGGCACCAAAAGUAAUAGUCUUGCGCUCAACCAGAAAGUCUGUAAUCAUUUUAAGGGUA", "note": "[U39C G41A U87C A94U]", "self-cleavage": 1.62}, {"variant": "GUUAACGGUCAUAGGCCACGGAAACUAGGAGCACCAUUUCGCUGCCAGUGAAGAAAUGAACAAAGAAGAUCUGGGCCAGGCAGGCAUCAAAAGAAAUAGUCUCGCGCUCAACCAGAAAGUCUGUAAUCAUCUUAAGGGUA", "note": "[U19C A68G U103C U131C]", "self-cleavage": 0.89}, {"variant": "GUUAAUGGUCAUAGGCCAUGGAAACUAGGAGCACCAUUUCGCUGCCAGUGAAGAAAUGAGCAAAGAGAAUCUGGGCUAGGCAGGCAUCAAAAGAAAUAGUCUUGCGCUCAACCAGAAAGUCUGUAAUCAUUUUAAGGGUA", "note": "[C6U A60G A67G C77U]", "self-cleavage": 1.32}, {"variant": "GUUAACGGUCAUAGGCCAUGGAAACUAGGAGCACCAUUUAGCUGCCAGUGAGGAAAUGAACAAAGAAAAUCCGGGCCAGGCAGGCACCAAAAGAAAUAGUCUUGCGCUCAACCAGAAAGUCUGUAAUCAUUUUAAGGGUA", "note": "[C40A A52G U72C U87C]", "self-cleavage": 0.38}, {"variant": "GUUAGCGGUCAUAGGCCAUGGAAGCUGGGAGCACCAUUUCGCUGCCAGUGAAGAAAUGAACAAAGAAAAUCUGGGCCAGGCAGGCAUCAAAAGAAAUAGUCUUGCGCUCAACCAGAAAGUCUGUAAUCAUUUUAUGGGUA", "note": "[A5G A24G A27G A135U]", "self-cleavage": 0.12}, {"variant": "GUUAACGGUCAUAGGCCAUGGAAACUAGGAGCACCACUUCGCUGCCAGCGAAGAAAUGAACAAAGAAAAUCUGGGCCAGGCAGGCAUCAAAAGAAAUAGUCUUGCGCUCAACCAGAAAGUCUGUAAUCAUCUUAAGGGUA", "note": "[U37C U49C U131C]", "self-cleavage": 1.1}, {"variant": "GUUAACGGUCAUAGGCCAUGGAAACUAGGAGCACCAUUUCGCUGCCAGUGAAGAAGUGAACAAAGAAAAUCUGGGCCUGGCAGGCAUCAAAAGAAAUAGUCUUGCGCUCAACUAGAAAGUCUGUAAUCAUUUUAAGGGUA", "note": "[A56G A78U C113U]", "self-cleavage": 0.03}, {"variant": "GUUAACGGUCAUAGGCCAUGGAAACUAGGAGCACCAUUUCGCUGCCAGCGAAGAAAUGAACAGAGAAAAUCUGGGCCAGGCAGGCAUCAAAAGAAAUAGGCUUGCGCUCAACCAGAAAGUCUGUAAUCAUUUUAAGGGUA", "note": "[U49C A63G U100G]", "self-cleavage": 1.55}, {"variant": "GUUAACGGUCAUAGGCCAUGGAAACUAGGAGCACCAUUUCGCUGCCAGUGAAGGAAUGAACAAAGAAAAUCUGGGCCAGGCAGGCACCAAAAGAAAUAGUCUAGCGCUCAACCAGAGAGUCUGUAAUCAUUUUAAGGGUA", "note": "[A54G U87C U103A A117G]", "self-cleavage": 0.86}, {"variant": "GUUAACGGUCAUAGGCCAUGGAAACUAGGAGCACCAUUUCGCUGCCAGUGAAGAAAUGAACAGAGAAAAUCUGGGCCAGGCAGGCAUCAGAAGAAAUAGUCUUGCGCUCAACCAGAAAGUCUGUAACCAUUUUAAGGGUA", "note": "[A63G A90G U127C]", "self-cleavage": 0.71}, {"variant": "GUUAACGGUCAUAGGCCAUGGAAACUAGGAGCACCAUUUCGCUGCCAGCGAAGAAAUGAACAAAGAAAACCUGGGCCAGGCAGGCAUCAAAAGAGAUAGUCUUGCGCUCAACCAGAAAGUCUGUAAUCAUUUUAAGGGUA", "note": "[U49C U70C A95G]", "self-cleavage": 1.75}, {"variant": "GUUAACGGUCAUAGGCCAUGGAGACUAGGAGCACCAUUUCGCUGCCAGUGAAGAAAUGAACAAAGAAAAUCUGGGCCAGGCGGGCAUCAAAAGAAAUAGUCUUGCGCUCAACCAGAAGGUCUGUAAUCAUUUUAAGGGUA", "note": "[A23G A82G A118G]", "self-cleavage": 0.32}, {"variant": "GUUAACGGUCAUAGGCCAUGGGAACUAGGAGCUCCAUUUCGCUGCCAGUGAAGAAAGGAACAAAGAAAAUCUGGGCCAGGCAGGCAUCAAAAGAAAUAGUCUUGCGCUCAACCAGAAAGUCUGUAAUCAUUUUAAGGGUA", "note": "[A22G A33U U57G]", "self-cleavage": 1.18}, {"variant": "GUUAACGGUCAUAGGCCAUGGAAACUAGGAGCACCAUUUCGCAGCCAGUGAAGAAAUGAACAAAGAAAAUCUGGGCCAAGCAGGCAUCAAAAGAAAUAGGCUUGCGCUCAACCAGAAAGUCUGUAAUCGUUUUAAGGGUA", "note": "[U43A G79A U100G A129G]", "self-cleavage": 0.07}, {"variant": "GUUAACGGUCAUAGGCCAUGGAAACUAGGAGCGCCAUUUCGCUGCCAGUGAAGAAAUGAACAAAGAGAAUCUGGGCCAGGCAGGCAUCAAAAGAAAUAGUCCCGCGCUCAACCAGAAAGUCUGUAAUCAUUUUAAGGGUA", "note": "[A33G A67G U102C U103C]", "self-cleavage": 0.08}, {"variant": "GUUAACGGUCAUAGGCCAAGGAACCUAGGAGCACCAUUCCGCUGCCAGUGAAGAAAUGAACAAAGAAAAUCUGGGCCAGGCAGGCAUCAAAAGAAAAAGUCUUGCGCUCAACCAGAAAGUCUGUAAUCAUUUUAAGGGCA", "note": "[U19A A24C U39C U97A U139C]", "self-cleavage": 2.07}]}]}
